# Laboratory results: publication PMC6919601, “Identification of Plasmodium dipeptidyl aminopeptidase allosteric inhibitors by high throughput screening” (PLoS ONE, 2019)
# Where “and” joins values, the source holds several entries; their conditions need not be identical. Equal entries are not always repeated. Hit rate of the full screen: of about 110,000 compounds, about 230 (0.21%) showed an effect of 50% or more. The list shows a part of the results.
# Target: DPAP1 (Plasmodium falciparum, UniProt Q8IIJ9)
# Sequence (Q8IIJ9 whole entry, looked up): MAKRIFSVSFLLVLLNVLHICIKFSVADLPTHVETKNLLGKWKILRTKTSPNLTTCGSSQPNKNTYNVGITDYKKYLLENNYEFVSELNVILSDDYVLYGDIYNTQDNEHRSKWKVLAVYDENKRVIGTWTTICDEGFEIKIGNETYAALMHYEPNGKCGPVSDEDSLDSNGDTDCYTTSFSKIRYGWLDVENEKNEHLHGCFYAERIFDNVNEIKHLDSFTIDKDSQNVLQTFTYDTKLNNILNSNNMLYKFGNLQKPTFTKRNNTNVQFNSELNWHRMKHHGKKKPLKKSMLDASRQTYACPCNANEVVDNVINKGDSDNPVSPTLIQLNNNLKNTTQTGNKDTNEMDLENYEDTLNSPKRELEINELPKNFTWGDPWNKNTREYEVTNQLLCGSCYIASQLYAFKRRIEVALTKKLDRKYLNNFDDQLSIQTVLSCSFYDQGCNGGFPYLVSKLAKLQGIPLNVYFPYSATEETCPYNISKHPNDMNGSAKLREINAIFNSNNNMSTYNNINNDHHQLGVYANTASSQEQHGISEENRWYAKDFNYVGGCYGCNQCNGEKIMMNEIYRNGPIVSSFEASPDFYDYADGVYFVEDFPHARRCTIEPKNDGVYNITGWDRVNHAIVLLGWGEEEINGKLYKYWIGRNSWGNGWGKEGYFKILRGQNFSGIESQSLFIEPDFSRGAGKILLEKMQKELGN
# Assay: primary screen, percent inhibition; read by cleavage of a fluorogenic dipeptide substrate; higher = more effect of the substance
# Parameters: species or system P. falciparum D10 trophozoite lysates; single well
# 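Also: 30 min substrate incubation versus DMSO and 10 µM JCP410 controls.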
row,SMILES,% Inhibition @ 10 uM
1,CN1C(=O)N(C)C2(Nc3ccccc3N(C)C2=O)C1=O (centres unmarked),2.65%
2,O=C(Cn1ncc2c3ccccc3n(Cc3ccccc3F)c2c1=O)NCCc1c[nH]c2ccccc12,-0.0741%
3,Cc1ccc(C)c(C2=CSC3=NCCN23)c1,1.39%
4,O=S1c2ccccc2C(O)N1c1ccccc1 (centres unmarked),2.13%
5,COCCN1C(=O)c2ccccc2C(C(=O)NCc2ccc(C)o2)C1c1cn(C)c2ccccc12 (centres unmarked),0.738%
6,N#CC1=C(N)Oc2ccc3ccc(O)cc3c2C1c1ccc(Br)cc1 (centres unmarked),1.82%
7,COc1ccc(-c2c(Cl)nc(N3CCCCC3)c(=O)n2-c2ccccc2)cc1OC,-5.63%
8,CN1C(=O)C(O)(CC(=O)c2ccccn2)c2ccccc21 (centres unmarked),-5.14%
9,O=C(CCCCn1c(=O)[nH]c2ccsc2c1=O)NCCc1ccc(Cl)cc1,-0.228%
10,COC(=O)C1=C(C)N(CCc2ccccc2)C(=O)/C1=C\c1cc2c(cc1Br)OCO2,-1.6%
11,COc1ccc(-c2csc(/C(C#N)=C\Nc3ccccc3C)n2)cc1,-3.26%
12,Cc1cc(Oc2nc3ccccn3c(=O)c2/C=C(\C#N)C(=O)NCCc2ccccc2)ccc1Cl,3%
13,CCCCNc1nc(=S)n(-c2ccccc2)c(C)c1C(C)=O,3.05%
14,Cn1c2c(c(=O)n(C)c1=O)CN(CC1CCCO1)CN2 (centres unmarked),0.66%
15,CC(=O)c1c(C(C)=O)c(C)n(-c2cc(C)cc(C)c2)c1C,-2.48%
16,CCCN1CCC(NC2CCN(Cc3ccccc3)CC2)CC1,4.28%
17,CCN(CC)C(=O)c1sc(NC(=O)c2c(-c3ccccc3Cl)noc2C)c(C(=O)OC)c1C,-3.02%
18,O=C(O)c1ccc(NC(=O)c2ccc3c(c2)C(=O)N(c2ccc(C(=O)O)cc2)C3=O)cc1,-4.96%
19,O=C(O)CCCC(=O)NCc1ccc2c(c1)OCO2,0.64%
20,CC(=O)N(C)c1ccc(NC(=O)COc2cccc(C)c2)cc1,-2.09%
21,Cc1ccc2c(Sc3ccc(Cl)cc3)c(C(=O)N3CCOCC3)[nH]c2c1,-5.1%
22,CC1(C)CC(=O)C2=C(C1)N(c1ccc(Cl)cc1)C(N)=C(C#N)C2c1ccc2c(c1)OCO2 (centres unmarked),5.31%
23,Cc1ccsc1CN1CCc2c([nH]c3ccccc23)C1,-2.81%
24,Cn1c(=O)[nH]c(=O)c2c1nc(N1CCN(Cc3ccccc3)CC1)n2Cc1ccccc1F,-6.43%
25,COc1ccc(CON2C(=O)c3ccccc3C2=O)cc1Cl,-5.28%

row,SMILES,% Inhibition @ 10 uM
1,Cc1ccc(C(=O)Nc2cccc3c2CCCC3)cc1,2.65%
2,CCCCN(C(=O)c1ccccc1)C1=CC2CCC(C1)N2C (centres unmarked),0.708%
3,Cc1ccccc1-c1nc(CS(=O)CC(=O)N2CCCCC2)c(C)o1 (centres unmarked),-2.85%
4,Cc1cccc2c[nH]nc12,0.0198%
5,Cc1nn(-c2ccccc2)c(-n2cccc2)c1C(=O)N1CCC(C(=O)NCc2ccc(F)cc2)CC1,1.8%
6,Oc1nc2cc3nc(O)c(O)nc3cc2[nH]1,2.25%
7,Cc1ccc2ncc(S(=O)(=O)c3ccccc3)c(N3CCN(C)CC3)c2c1,0.54%
8,Cc1cc(O)c(C2=NCCSC(c3ccc4c(c3)OCO4)C2)c(=O)o1 (centres unmarked),-5.28%
9,C=CCn1c(SCC(=O)N2CCN(CCO)CC2)nc2sc3c(c2c1=O)CCC3,-3.46%
10,CCCCOC(=O)c1c[nH]nc1[N+](=O)[O-],-4.31%
11,CS(=O)(=O)N(CC(=O)Nc1ccccc1)c1ccc(Oc2ccccc2)cc1,-3.39%
12,O=C(COc1ccc(F)cc1)NCCN1CCCC1,-6.05%
13,Cc1ccc(-c2noc(CNC(=O)C(C)(C)Oc3ccc(Cl)cc3)n2)cc1,-4.82%
14,C=C(Br)Cn1c(-c2cccs2)nc2ccccc21,-2.19%
15,CC1CCN(C(=O)c2nc(-c3ccc(Cl)cc3)n3c2CCCCC3)CC1,0.928%
16,O=C(Nc1ccc(NC(=O)c2cccs2)cc1)c1ccc(Br)o1,-2.88%
17,CC1(C)CC(=O)C2=C(C1)OC(N)=C(C#N)C2(C)C,0.467%
18,CCCCOc1nn(-c2ccc3cc(-c4ccccc4)c(=O)oc3c2)nc1C,3.01%
19,O=C(NC(C(=O)c1ccccc1)N1CCCCC1)c1ccccc1 (centres unmarked),-4.06%
20,Cc1c(CC(=O)NCc2ccco2)c(=O)oc2cc(O)ccc12,0.895%
21,C=CCNC(=O)COc1ccc(C(C)(C)C)cc1Br,4.11%
22,O=C1CC(N2CCN(Cc3ccc4c(c3)OCO4)CC2)C(=O)N1c1ccc(Cl)cc1 (centres unmarked),3.21%
23,COc1cc(-c2c(C#N)c(N)nc3[nH]c(=S)[nH]c(=O)c23)ccc1O,4.42%
24,COc1cccc(C2OC3(C(=O)c4ccccc4C3=O)C3C(=O)N(c4ccc(C)cc4)C(=O)C23)c1 (centres unmarked),-0.28%
25,CCCn1c2ccccc2n2c(C(C)=O)c(-c3ccccc3)nc12,-7.5%

row,SMILES,% Inhibition @ 10 uM
1,Cc1nc2ccccn2c1C(=O)NCC(C)C,-1.64%
2,CCOC(=O)N1CCN(C(=O)CSc2nc(O)c3cnn(-c4ccc(F)cc4)c3n2)CC1,6.57%
3,COc1cc(S(=O)(=O)NCc2ccccn2)c(OC)cc1Cl,1.74%
4,O=C1C2CCCCN2C(=O)N1CCCN1CCN(c2ccc(F)cc2)CC1 (centres unmarked),-3.65%
5,CC(=O)c1ccc(N2Cc3ccc(Br)cc3C2)cc1,-1.85%
6,Cc1cc(Cl)ccc1OCCCC(=O)Nc1ccccc1F,10%
7,CCc1c(CN2CCN(CC)CC2)csc1C,0.401%
8,Fc1cccc(Cl)c1CN1CCC(N2CCCCC2)CC1,1.9%
9,COc1ccccc1-c1c(C)nn2c(Cl)cc(C)nc12,1.42%
10,CCOC(=O)c1c(NC(=O)CNC(C)(C)C)sc2c1CCC(C)C2 (centres unmarked),3.32%
11,COCCCNC1CCC(c2ccccc2)CC1 (centres unmarked),-3.27%
12,CCCc1c(C)c(C#N)c2nc3ccccc3n2c1NCCCn1ccnc1,3.93%
13,CCC(C)NC(=O)c1cc(-c2ccc(OC)c(OC)c2)on1 (centres unmarked),-5.09%
14,C/N=c1\c(NS(=O)(=O)c2ccc(C3CCCCC3)cc2)c(O)oc2ccccc12,-1.14%
15,Cc1cc2c(cc3c(SCC(=O)NCc4ccco4)nncn32)o1,-1.97%
16,Cc1cccc(CCNc2ncnc3c2nc2n3CCCCC2)c1,0.745%
17,COc1ccc(CNC(=O)C2CC(=O)N(c3ccc(OCC(=O)N4CCCC4)cc3)C2)cc1 (centres unmarked),-2.83%
18,Cc1ccc(C(C)C)c(OCC(=O)Nc2cccc(C(F)(F)F)c2)c1,1.48%
19,COCCNC(=O)C1CCCN(c2nnc(-n3c(C)ccc3C)s2)C1 (centres unmarked),-4.15%
20,CCOC(=O)c1c(S(=O)(=O)N(CC(C)C)CC(C)C)c(C)n(C)c1C,-3.56%
21,CCCOc1ccc(C2c3c(oc4ccc(F)cc4c3=O)C(=O)N2c2nc(C)c(C)s2)cc1 (centres unmarked),-3.13%
22,Cc1ccc2oc(C(=O)N3CCN(C(c4ccccc4)c4ccccc4)CC3)cc(=O)c2c1,-1.47%
23,Cc1oc2ccc(O)c(CN3CCCC3)c2c1C(=O)OCCc1ccccc1,-4.82%
24,O=C(Nc1ccccc1Br)c1cccc(Br)c1,-3.13%
25,COc1cc(CN(CC2CCCO2)C(=O)c2ccc(C)cc2)cc(OC)c1OC (centres unmarked),0.758%

row,SMILES,% Inhibition @ 10 uM
1,CCCCCCCCOc1ccc(/C=C(\C#N)c2nc(-c3ccc(Cl)c(Cl)c3)cs2)cc1,-4.87%
2,Cc1ccc([C@H]2NCC[C@@]3(O)CCCC[C@H]23)cc1,0.878%
3,COc1ccc(C(=O)n2c(=O)oc3cc(Br)ccc32)cc1,-2.88%
4,O=C(Nc1nc2ccccc2n1CCN1CCCCC1)c1ccccc1,0.162%
5,CCOC(=O)Nc1ccc2c(c1)N(C(=O)C(C)N1CCCC1)c1ccccc1CC2 (centres unmarked),-2.47%
6,COc1cc(NC(=O)Cn2ncc3c(C)n(Cc4ccc(F)cc4)c(C)c3c2=O)ncn1,1.22%
7,Nc1nc(-c2sc3nc4c(cc3c2N)CCC4)nc(N2CCOCC2)n1,-3.46% and 0.331%
8,C[C@@H](C[C@H](NC(=O)c1cc2c(-c3ccccc3)nn(C)c2s1)C(=O)NCC#N)c1ccccc1,-3.14%
9,O=C(Cn1nc(-c2ccc(Cl)cc2)c2ccccc2c1=O)NCc1cccnc1,2.95%
10,CCOc1cccc2sc(N(CCN(C)C)C(=O)C3CCCCC3)nc12,-4.44%
11,O=C1c2cccc3cccc(c23)C(=O)N1CC1CCN(S(=O)(=O)c2ccccc2)CC1,4.12%
12,CCC1CCc2c(sc(NC(=O)c3cccnc3)c2C#N)C1 (centres unmarked),-1.06%
13,CCc1ccccc1NC(=O)CN(c1ccc(OC)cc1)S(C)(=O)=O,3.17%
14,Cc1c2cnn(CC(=O)NCCCN3CCCC3=O)c(=O)c2c(C)n1Cc1ccccc1,-5.81%
15,COc1ccccc1C(=O)N(CCN(C)C)c1nc2cc(C)cc(C)c2s1,-0.0871%
16,c1ccc(OCCn2cnc3ccccc32)cc1,3.44%
17,Cc1ccc(S(=O)(=O)N2CCN(C)CC2)cc1C,-3.14%
18,CN1CCN(C(=O)CSc2nc3ccc(NC(=O)c4ccc(F)cc4)cc3s2)CC1,2.01%
19,COC(=O)c1ccc(-n2nnnc2SCC(=O)c2ccc(O)c(O)c2)cc1,-7.46%
20,CCOC(=O)c1sc(C)c(C(=O)NC2CCCCC2)c1N,2.65%
21,COc1ccc2occ(CC(=O)Nc3sc4c(c3C(N)=O)CCCC4)c2c1,-4.91%
22,CC[C@H](C)[C@H](NC(=O)OCc1ccccc1)C(=O)Nc1cccc(NS(=O)(=O)c2ccc3c(c2)oc2ccccc23)c1,-12.9%
23,O=S(=O)(c1ccccc1)c1nnn2c1nc(NC1CCCCCCC1)c1ccccc12,17.5%
